Twelve sequences from the supplement of paper PMC12230231 can be followed below.

± gives the standard deviation of the averaged measurements. Restriction of a single-cycle SIVsab GFP reporter by TRIM5α v1-loop variants in CRFK cells. Human variants: read share among cells still uninfected after two challenges over input, higher = gained restriction. Rhesus variants: share among infected cells over input, higher = lost restriction. Reporter dose not given per row. No active / inactive call per row; the paper calls a change when both replicates lie above its controls (mean + 2 SD of stop or wild-type variants, or the top frameshift score). Residues outside the varied loop are taken from Swiss-Prot. The paper reads the human single-substitution scores as noise; they and the rhesus combinations repeat poorly (rank correlation 0.3 to 0.4), indel scores repeat only for the top variants, rhesus substitutions well (0.9).

The test system of this series is SIVsab (simian immunodeficiency virus of sabaeus monkeys), single-cycle GFP reporter, in CRFK cells. The series is described as follows: enrichment among uninfected cells over input (fold); higher = stronger restriction. The note with it: library: human / rhesus combinations. The protocol: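 Pools of CRFK cells expressing variants of the TRIM5α v1 loop were challenged with the single-cycle reporter, sorted by GFP and sequenced; mean of two replicates.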
Regarding “MASGILVNVKEEVTCPICLELLTQPLSLDCGHSFCQACLTANHKKSMLDKGESSCPVCRISYQPENIRPNRHVANIVEKLREVKLSPEGQKVDHCARHGEKLLLFCQEDGKVICWLCERSQEHRGHHTFLTEEVAREYQVKLQAALEMLRQKQQEAEELEADIREEKASWKTQIQYDKTNVLADFEQLRDILDWEESNELQNLEKEEEDILKSLTNSETEMVQQTQSLRELISDLEHRLQGSVMELLQGVDGVIKRTENVTLKKPETFPKNQRRVFRAPDLKGMLEVFRELTDVRRYWVDVTVAPNNISCAVISEDKRQVSSPKPQIIYQAPGTLYTFPSFTNFNYCTGILGSQSITSGKHYWEVDVSKKTAWILGVCAGFQPDAMCNIEKNENYQPKYGYWVIGLEEGVKCSAFQDSSFHTPSVPFIVPLSVIICPDRVGVFLDYEACTVSFFNITNHGFLIYKFSHCSFSQPVFPYLNPRKCGVPMTLCSPSS [human TRIM5α, 330-340 = QAPGTLYTFPSFT]”, the enrichment stood at 0.0629 ± 0.025.
Then “MASGILVNVKEEVTCPICLELLTQPLSLDCGHSFCQACLTANHKKSMLDKGESSCPVCRISYQPENIRPNRHVANIVEKLREVKLSPEGQKVDHCARHGEKLLLFCQEDGKVICWLCERSQEHRGHHTFLTEEVAREYQVKLQAALEMLRQKQQEAEELEADIREEKASWKTQIQYDKTNVLADFEQLRDILDWEESNELQNLEKEEEDILKSLTNSETEMVQQTQSLRELISDLEHRLQGSVMELLQGVDGVIKRTENVTLKKPETFPKNQRRVFRAPDLKGMLEVFRELTDVRRYWVDVTVAPNNISCAVISEDKRQVSSPKPQIIYQAPGTLYTFPSFVNFNYCTGILGSQSITSGKHYWEVDVSKKTAWILGVCAGFQPDAMCNIEKNENYQPKYGYWVIGLEEGVKCSAFQDSSFHTPSVPFIVPLSVIICPDRVGVFLDYEACTVSFFNITNHGFLIYKFSHCSFSQPVFPYLNPRKCGVPMTLCSPSS [human TRIM5α, 330-340 = QAPGTLYTFPSFV]”, with 0.824 ± 0.4.
On to “MASGILVNVKEEVTCPICLELLTQPLSLDCGHSFCQACLTANHKKSMLDKGESSCPVCRISYQPENIRPNRHVANIVEKLREVKLSPEGQKVDHCARHGEKLLLFCQEDGKVICWLCERSQEHRGHHTFLTEEVAREYQVKLQAALEMLRQKQQEAEELEADIREEKASWKTQIQYDKTNVLADFEQLRDILDWEESNELQNLEKEEEDILKSLTNSETEMVQQTQSLRELISDLEHRLQGSVMELLQGVDGVIKRTENVTLKKPETFPKNQRRVFRAPDLKGMLEVFRELTDVRRYWVDVTVAPNNISCAVISEDKRQVSSPKPQIIYQAPGTLYTFPSLTNFNYCTGILGSQSITSGKHYWEVDVSKKTAWILGVCAGFQPDAMCNIEKNENYQPKYGYWVIGLEEGVKCSAFQDSSFHTPSVPFIVPLSVIICPDRVGVFLDYEACTVSFFNITNHGFLIYKFSHCSFSQPVFPYLNPRKCGVPMTLCSPSS [human TRIM5α, 330-340 = QAPGTLYTFPSLT]”, for which the enrichment was 0.0302 ± 0.035.
On to “MASGILVNVKEEVTCPICLELLTQPLSLDCGHSFCQACLTANHKKSMLDKGESSCPVCRISYQPENIRPNRHVANIVEKLREVKLSPEGQKVDHCARHGEKLLLFCQEDGKVICWLCERSQEHRGHHTFLTEEVAREYQVKLQAALEMLRQKQQEAEELEADIREEKASWKTQIQYDKTNVLADFEQLRDILDWEESNELQNLEKEEEDILKSLTNSETEMVQQTQSLRELISDLEHRLQGSVMELLQGVDGVIKRTENVTLKKPETFPKNQRRVFRAPDLKGMLEVFRELTDVRRYWVDVTVAPNNISCAVISEDKRQVSSPKPQIIYQAPGTLYTFPSLVNFNYCTGILGSQSITSGKHYWEVDVSKKTAWILGVCAGFQPDAMCNIEKNENYQPKYGYWVIGLEEGVKCSAFQDSSFHTPSVPFIVPLSVIICPDRVGVFLDYEACTVSFFNITNHGFLIYKFSHCSFSQPVFPYLNPRKCGVPMTLCSPSS [human TRIM5α, 330-340 = QAPGTLYTFPSLV]”, for which the enrichment amounted to 0.337 ± 0.13.
With “MASGILVNVKEEVTCPICLELLTQPLSLDCGHSFCQACLTANHKKSMLDKGESSCPVCRISYQPENIRPNRHVANIVEKLREVKLSPEGQKVDHCARHGEKLLLFCQEDGKVICWLCERSQEHRGHHTFLTEEVAREYQVKLQAALEMLRQKQQEAEELEADIREEKASWKTQIQYDKTNVLADFEQLRDILDWEESNELQNLEKEEEDILKSLTNSETEMVQQTQSLRELISDLEHRLQGSVMELLQGVDGVIKRTENVTLKKPETFPKNQRRVFRAPDLKGMLEVFRELTDVRRYWVDVTVAPNNISCAVISEDKRQVSSPKPQIIYQAPGTLYTFPTFTNFNYCTGILGSQSITSGKHYWEVDVSKKTAWILGVCAGFQPDAMCNIEKNENYQPKYGYWVIGLEEGVKCSAFQDSSFHTPSVPFIVPLSVIICPDRVGVFLDYEACTVSFFNITNHGFLIYKFSHCSFSQPVFPYLNPRKCGVPMTLCSPSS [human TRIM5α, 330-340 = QAPGTLYTFPTFT]”, the enrichment was 0.25 ± 0.19.
“MASGILVNVKEEVTCPICLELLTQPLSLDCGHSFCQACLTANHKKSMLDKGESSCPVCRISYQPENIRPNRHVANIVEKLREVKLSPEGQKVDHCARHGEKLLLFCQEDGKVICWLCERSQEHRGHHTFLTEEVAREYQVKLQAALEMLRQKQQEAEELEADIREEKASWKTQIQYDKTNVLADFEQLRDILDWEESNELQNLEKEEEDILKSLTNSETEMVQQTQSLRELISDLEHRLQGSVMELLQGVDGVIKRTENVTLKKPETFPKNQRRVFRAPDLKGMLEVFRELTDVRRYWVDVTVAPNNISCAVISEDKRQVSSPKPQIIYQAPGTLYTFPTFVNFNYCTGILGSQSITSGKHYWEVDVSKKTAWILGVCAGFQPDAMCNIEKNENYQPKYGYWVIGLEEGVKCSAFQDSSFHTPSVPFIVPLSVIICPDRVGVFLDYEACTVSFFNITNHGFLIYKFSHCSFSQPVFPYLNPRKCGVPMTLCSPSS [human TRIM5α, 330-340 = QAPGTLYTFPTFV]”: the enrichment is 0.233 ± 0.06.
As for “MASGILVNVKEEVTCPICLELLTQPLSLDCGHSFCQACLTANHKKSMLDKGESSCPVCRISYQPENIRPNRHVANIVEKLREVKLSPEGQKVDHCARHGEKLLLFCQEDGKVICWLCERSQEHRGHHTFLTEEVAREYQVKLQAALEMLRQKQQEAEELEADIREEKASWKTQIQYDKTNVLADFEQLRDILDWEESNELQNLEKEEEDILKSLTNSETEMVQQTQSLRELISDLEHRLQGSVMELLQGVDGVIKRTENVTLKKPETFPKNQRRVFRAPDLKGMLEVFRELTDVRRYWVDVTVAPNNISCAVISEDKRQVSSPKPQIIYQAPGTLYTFPTLTNFNYCTGILGSQSITSGKHYWEVDVSKKTAWILGVCAGFQPDAMCNIEKNENYQPKYGYWVIGLEEGVKCSAFQDSSFHTPSVPFIVPLSVIICPDRVGVFLDYEACTVSFFNITNHGFLIYKFSHCSFSQPVFPYLNPRKCGVPMTLCSPSS [human TRIM5α, 330-340 = QAPGTLYTFPTLT]”, the enrichment was 0.0847 ± 0.12.
Then “MASGILVNVKEEVTCPICLELLTQPLSLDCGHSFCQACLTANHKKSMLDKGESSCPVCRISYQPENIRPNRHVANIVEKLREVKLSPEGQKVDHCARHGEKLLLFCQEDGKVICWLCERSQEHRGHHTFLTEEVAREYQVKLQAALEMLRQKQQEAEELEADIREEKASWKTQIQYDKTNVLADFEQLRDILDWEESNELQNLEKEEEDILKSLTNSETEMVQQTQSLRELISDLEHRLQGSVMELLQGVDGVIKRTENVTLKKPETFPKNQRRVFRAPDLKGMLEVFRELTDVRRYWVDVTVAPNNISCAVISEDKRQVSSPKPQIIYQAPGTLYTFPTLVNFNYCTGILGSQSITSGKHYWEVDVSKKTAWILGVCAGFQPDAMCNIEKNENYQPKYGYWVIGLEEGVKCSAFQDSSFHTPSVPFIVPLSVIICPDRVGVFLDYEACTVSFFNITNHGFLIYKFSHCSFSQPVFPYLNPRKCGVPMTLCSPSS [human TRIM5α, 330-340 = QAPGTLYTFPTLV]”, with 0.546 ± 0.18; and “MASGILVNVKEEVTCPICLELLTQPLSLDCGHSFCQACLTANHKKSMLDKGESSCPVCRISYQPENIRPNRHVANIVEKLREVKLSPEGQKVDHCARHGEKLLLFCQEDGKVICWLCERSQEHRGHHTFLTEEVAREYQVKLQAALEMLRQKQQEAEELEADIREEKASWKTQIQYDKTNVLADFEQLRDILDWEESNELQNLEKEEEDILKSLTNSETEMVQQTQSLRELISDLEHRLQGSVMELLQGVDGVIKRTENVTLKKPETFPKNQRRVFRAPDLKGMLEVFRELTDVRRYWVDVTVAPNNISCAVISEDKRQVSSPKPQIIYQAPGTLYTFQSFTNFNYCTGILGSQSITSGKHYWEVDVSKKTAWILGVCAGFQPDAMCNIEKNENYQPKYGYWVIGLEEGVKCSAFQDSSFHTPSVPFIVPLSVIICPDRVGVFLDYEACTVSFFNITNHGFLIYKFSHCSFSQPVFPYLNPRKCGVPMTLCSPSS [human TRIM5α, 330-340 = QAPGTLYTFQSFT]”, with 0.128 ± 0.04.
For “MASGILVNVKEEVTCPICLELLTQPLSLDCGHSFCQACLTANHKKSMLDKGESSCPVCRISYQPENIRPNRHVANIVEKLREVKLSPEGQKVDHCARHGEKLLLFCQEDGKVICWLCERSQEHRGHHTFLTEEVAREYQVKLQAALEMLRQKQQEAEELEADIREEKASWKTQIQYDKTNVLADFEQLRDILDWEESNELQNLEKEEEDILKSLTNSETEMVQQTQSLRELISDLEHRLQGSVMELLQGVDGVIKRTENVTLKKPETFPKNQRRVFRAPDLKGMLEVFRELTDVRRYWVDVTVAPNNISCAVISEDKRQVSSPKPQIIYQAPGTLYTFQSFVNFNYCTGILGSQSITSGKHYWEVDVSKKTAWILGVCAGFQPDAMCNIEKNENYQPKYGYWVIGLEEGVKCSAFQDSSFHTPSVPFIVPLSVIICPDRVGVFLDYEACTVSFFNITNHGFLIYKFSHCSFSQPVFPYLNPRKCGVPMTLCSPSS [human TRIM5α, 330-340 = QAPGTLYTFQSFV]” the value was 0.291 ± 0.35; for “MASGILVNVKEEVTCPICLELLTQPLSLDCGHSFCQACLTANHKKSMLDKGESSCPVCRISYQPENIRPNRHVANIVEKLREVKLSPEGQKVDHCARHGEKLLLFCQEDGKVICWLCERSQEHRGHHTFLTEEVAREYQVKLQAALEMLRQKQQEAEELEADIREEKASWKTQIQYDKTNVLADFEQLRDILDWEESNELQNLEKEEEDILKSLTNSETEMVQQTQSLRELISDLEHRLQGSVMELLQGVDGVIKRTENVTLKKPETFPKNQRRVFRAPDLKGMLEVFRELTDVRRYWVDVTVAPNNISCAVISEDKRQVSSPKPQIIYQAPGTLYTFQSLTNFNYCTGILGSQSITSGKHYWEVDVSKKTAWILGVCAGFQPDAMCNIEKNENYQPKYGYWVIGLEEGVKCSAFQDSSFHTPSVPFIVPLSVIICPDRVGVFLDYEACTVSFFNITNHGFLIYKFSHCSFSQPVFPYLNPRKCGVPMTLCSPSS [human TRIM5α, 330-340 = QAPGTLYTFQSLT]”, 0.268 ± 0.036.
Regarding “MASGILVNVKEEVTCPICLELLTQPLSLDCGHSFCQACLTANHKKSMLDKGESSCPVCRISYQPENIRPNRHVANIVEKLREVKLSPEGQKVDHCARHGEKLLLFCQEDGKVICWLCERSQEHRGHHTFLTEEVAREYQVKLQAALEMLRQKQQEAEELEADIREEKASWKTQIQYDKTNVLADFEQLRDILDWEESNELQNLEKEEEDILKSLTNSETEMVQQTQSLRELISDLEHRLQGSVMELLQGVDGVIKRTENVTLKKPETFPKNQRRVFRAPDLKGMLEVFRELTDVRRYWVDVTVAPNNISCAVISEDKRQVSSPKPQIIYQAPGTLYTFQSLVNFNYCTGILGSQSITSGKHYWEVDVSKKTAWILGVCAGFQPDAMCNIEKNENYQPKYGYWVIGLEEGVKCSAFQDSSFHTPSVPFIVPLSVIICPDRVGVFLDYEACTVSFFNITNHGFLIYKFSHCSFSQPVFPYLNPRKCGVPMTLCSPSS [human TRIM5α, 330-340 = QAPGTLYTFQSLV]”, the enrichment is 0.133 ± 0.18.
